The source gives no read counts; variants with many changes may rest on few reads.

B1: CPEB3 Ribozyme (parent)
chain: UAACAGGGGGCCACAGCAGAAGCGUUCACGUCGCAGCCCCUGUCAGAUUCUGGUGAAUCUGCGAAUUCUGCUGUAUAUCUC

The variants in this data set derive from B1. In words: self-cleavage, relative activity (ratio to wild type); higher = more cleavage; in vitro, sequencing. An outline of the steps:
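For each CPEB3 ribozyme variant, relative activity is its cleaved/total read fraction divided by the unmutated ribozyme's. Barcoded error-prone PCR libraries were transcribed by T7 RNA polymerase (5 hours, 37°C) and held in DNase I for 15 min before an EDTA stop, with cleavage occurring throughout. Template-switching reverse transcription and Illumina sequencing were used to read the RNAs. A 5-read minimum applied, and results are the mean of three batches.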
With A5U A13U C17U A21G U31C U60A, the self-cleavage came to 0.15.
As for A5U A20G U58A C62A U69A, the figure is 0.22.
As for A5U A21G U25A A35U A45G U54C, the figure is 0.32.
As for A5U A15G U25A U26A, the figure is 0.62; as for G6A A15G U41G, 0.19.
Turning to G6A A13G U25C U43C G46U U48C, the self-cleavage is 0.05.
In the case of A5U A21G U78G, the self-cleavage is 0.95.
As for A5U A13U U51A U54A U74A, the figure is 1.2.
As for A5U A18U U41C U58G, the figure is 0.33; as for A5U A18G U41C U49C U78C, 0.3; as for A5U A20G U26C A57G A77G U80C, 0.21.
The result for A5U C34A G55A A77C reads 0.08; that for A5U G6A A21G U25A A47U, 0.1.
Regarding A5G U31A A57G, the self-cleavage was 0.2.
The result for A5U G9A C37A A65G G73A reads 0.05; that for A5G U26C G46A A47G U69C, 0.42.
As for A5U C37A A45U U66C, the self-cleavage is 0.09.
Turning to A5U A21G A35G, the self-cleavage came to 1.19.
The result for A5U A28U G33A U43C A57G U67C reads 0.09.
As for A5G U43A U51A A64G U72A, the figure is 0.44; as for G6A A15C U41A U49C U67A, 0.05.
The result for G6A A18U C32G A56U A65G U74G reads 0.03; that for A5U A13G A56G G70C U74C A75G, 0.2; that for A5U G8A G9C A28G U48A C59G A64G, 0.05.
Take A5G U31C A35G G46A U51C A56G: the self-cleavage came to 0.13.
The result for A5U C12U A13G G53A A64U reads 0.29; that for A5U U41G U54C, 0.4; that for A5U U58A U66C A75G, 0.15.
As for A5U G8A A20G U26C U31C C39A U72A, the self-cleavage came out at 0.05.
The result for A5U A13G G16U U80A reads 0.26; that for A5U A65G U69A, 0.21; that for A5U U54C G61C G70C, 0.42.
The result for A5U A13U U54G U60C reads 0.49; that for A5U U43C U49C, 0.22; that for A5U C12G A56G A57U U80C, 0.29.
As for A5U U58C U76C U80A, the figure is 0.43; as for A5G U31C C34U U49C, 0.29.
Consider A5U A28U A35G U41C U54C A75U, for which the self-cleavage came out at 1.19.
As for A5U G7U A21G A28G U41G U78A, the figure is 0.04; as for A5G U26C A28U U66C, 0.26; as for A5U C12U A15U A20U U60A A64U A77U, 0.08.
The result for A5U U31C A47G U49C A57G U60C A77U reads 0; that for A5U G7C U26C A28G C39A A45G U76A, 0.05; that for A5U U41A A45U U54C U80A, 0.08.
As to A5G U26A U31C, the self-cleavage is 0.41.
The result for A5U C29U A35G U69C G70A U80C reads 0.52; that for G6A A13U U51A, 0.18.
The result for A5G U48A A56G reads 0.3; that for A5U U25C C32U U54G U74C, 0.29.
As for A5U A18G A20G U51A A64U A75G, the figure is 0.14.
Turning to A5U U25C A28G, the self-cleavage turned out to be 0.35.
The result for A5U C37U U41C U69A U72C reads 0.34; that for A5U C39U U48C, 0.41.
As for A5U C17U C23U U43A A56U U60C U72G, the figure is 0.04.
The result for A5G U41A U43G U49C reads 0.45; that for A5U G24A A28G, 0.27; that for A5U A15G A21U A35G A77G, 0.38.
In the case of G6A A20G A35C U54A, the self-cleavage is 0.35.
As for A5U C17A U25C U80A, the figure is 0.09; as for A5U A18U A28G U31C U51C U66C, 0.08.
The result for A5U A13C A21G U31A A64U reads 0.14; that for A5U A20C U60C U69A, 0.2.
The result for A5U U49A U67G reads 0.23; that for A5U U43G U49A U51A, 0.28.
With A5G U60C A64G U78A U80C, the self-cleavage was 0.04.
As for A5U U31C U49C G55C A64G, the figure is 0.26; as for A5G U48C A56U, 0.21.
As for A5U C12U A15G U72A, the figure is 0.48.
As for A5U U58C U60C A64G U67C, the figure is 0.13; as for A5G U41C U54C G70A U72A A77G, 0.02; as for A5U U51C U66C, 0.4.
Turning to A5G U67A C71U, the self-cleavage was 0.22.
The result for A5G U67A U80G reads 0.39.
As for A5U A20G A28G G42A A56U U69C U78C, the figure is 0.09; as for A5G U66A U72C, 0.34.
Regarding A5U A15C U41C A57G, the self-cleavage was determined as 0.61.
As for G6A A20G U26C A45U A64G, the figure is 0.13; as for A5U G8U U72A, 0.17.
Regarding A5G U43C U58C, the self-cleavage amounted to 0.29.
The result for G6A A15G A21G C27G A57G reads 0.07; that for A5U C14U A35U, 0.98.
The result for A5G U54C U72A reads 0.61; that for A5U A28G A56U U78C, 0.24; that for A5G U43C U74C U78C, 0.36.
As for A5U C11A A35U G36U C38A C40A U80C, the figure is 0.07.
For the variant A5U A21G U25A U31G, the self-cleavage was 0.17.
The result for A5G U43C U49C U54G G63A A65U reads 0.2.
The result for A5U A56G U67G U80A reads 0.34; that for A5U C11A A21G U69A U72C, 0.03.
As for G6A A13G A47G U58C U74C A75G, the figure is 0.11.
For A5G U25G A45G A64G, the self-cleavage worked out at 0.34.
Consider A5U A18C U43A U78A, for which the self-cleavage is 0.19.
On to G6A A15C A20U A56G U66C U69C U72A, for which the self-cleavage came out at 0.05.
The result for A5U A13G A35G G63A U69C reads 0.34.
The result for A5U U43C G63U U74C reads 1.16.
As for A5U G7C U60C, the figure is 0.49; as for A5U U31C U48A U49C, 0.5.
On to A5U C38U U58A, for which the self-cleavage stood at 0.35.
As for A5U A21G U26C C34U A64U C71U U76C, the figure is 0.05; as for A5U A18G U76A, 0.86.
The result for A5G U31C C38U C44A A65G U80G reads 0.06.
As for G6A A18C U49C A56G U80C, the figure is 0.06; as for A5U A56U G63C, 0.18.
In the case of A5U A15U A35G A47U U72C, the self-cleavage stood at 0.92.
Consider A5U U41A U54C A56G, for which the self-cleavage came to 0.12.
Regarding A5U U26G C39U U74A, the self-cleavage turned out to be 0.22.
The result for A5U G9U U69C U74C reads 0.08; that for A5U A20G U48C U49A U69A, 0.39.
For the variant A5G U43C A65G G70A, the self-cleavage was 0.22.
In the case of A5U A13G A18G U58A U60A A64G, the self-cleavage came to 0.09.
As for A5G U60C U67C U69A, the figure is 0.18.
For A5U A57G U69C U72C C81U, the self-cleavage was 0.22.
The result for A5G U26C G30A U41C A65G U66C C68U reads 0.08.
With A5G U26C C29U U31C C37U A57G U67A, the self-cleavage is 0.06.
As for A5U A13U A18G U48A G63U, the figure is 0.41.
Turning to A5G U41A A47G A75G, the self-cleavage is 0.27.
Consider A5G U48A A57U, for which the self-cleavage was 0.97.
Consider A5U C11U C17U A18G A65U, for which the self-cleavage is 0.19.
As for A5G U26A U41C G52U, the figure is 0.25.
The result for G6A A15C C40U A57G reads 0.33.
As for A5U A35C U54C U80C, the self-cleavage came out at 0.89.
As for A5G U41C U43A A57G U66C U72A, the figure is 0.43; as for G6A A18G U26A U66C, 0.33; as for A5G U58C A64G U67C, 0.16.
The result for G6A A13U U25C U66C reads 0.11; that for A5U C17U A45G, 0.79; that for A5G U26A U51A U66C, 0.28.
With A5U A20G A35U G52U A64U, the self-cleavage was found to be 0.16.
In the case of A5U G10A U51C U66A, the self-cleavage stood at 0.11.
As for G6A A18U U43C, the figure is 0.36.
The result for A5U U43C U69A reads 0.35; that for A5U U25C A28G C39U U54C U69A U72C, 0.16; that for A5U G10U U26G U49C G52A U67A, 0.05.
The result for A5G U60C G61A reads 0.31.
With A5U A18U U25C C81A, the self-cleavage was 0.36.
The result for A5U A18G A20G U48C U49A reads 0.31; that for A5U C14U A20G C29U U49A A65G, 0.08.
The result for A5U G10A G24A C27U A57C U60C U76C reads 0.04; that for A5G U51A A64U U69C U72C U78A, 0.37.
The result for A5U A28G U72C U78C reads 1.01; that for A5U A18U A45G, 0.49.
With A5G U26C U41A A56G, the self-cleavage is 0.35.
On to G6A A13U A15G A21G A28U U72C, for which the self-cleavage was found to be 0.08.
As for A5U G9A U31A U60A A65G U67C, the figure is 0.05; as for A5G U60C U72C, 0.13; as for A5G U60C U72A, 0.26.
For A5U A18G U41A A57G U72A G73A, the self-cleavage stood at 0.1.
Consider A5U A18U A47G U69C U80C, for which the self-cleavage was 0.52.
The result for A5U U72C U78A reads 1.03.
The result for A5G U41A U67C U76C reads 0.05.
Regarding A5U G9A A28U U76C, the self-cleavage was 0.22.
As for A5G U26C U43A A57U U58C, the figure is 0.47.
As for A5U G8A A15G A18G U78C, the figure is 0.58.
As for A5U U26C A35G U80A, the figure is 1.23.
For A5G U43C U66A A75U, the self-cleavage was found to be 0.07.
As for A5U A13U A20G C32U U43C G61C U80A, the figure is 0.1.
As for A5G U31C U54A U80A, the figure is 0.65; as for G6A A13U A45U U80A, 0.68.
Turning to A5U G10C A18G U60C U69C, the self-cleavage stood at 0.08.
As for A5G U48C A57G U72C, the self-cleavage is 0.81.
Regarding A5G U31A U67A U69A, the self-cleavage came out at 0.12.
As for A5U G24C A75U, the figure is 0.37; as for A5U C29U U31C U41G U60C, 0.1; as for A5G U26C C27U A77U, 0.08.
As for A5U U25A U69C U74A, the figure is 0.08; as for A5U A56U U69A U72A, 0.3; as for A5G U26A A56G C62G, 0.09.

The values are drawn from the RNAGym collection of RNA variant scans (doi:10.1093/nar/gkz1192).
